# Measured values as given in the supplement of paper PMC12355420.
# Counter-ions that a name gives are not always drawn. The list shows a part of the results. Rule as the data show it: active = 0.5 or less and inactive = the rest. Repeats are few or missing, and single values can be far off.
# Tested on: HeLa VPS33A R498W KI + HA-SDC1-FLAG
# Test: relative GAG core protein HA-SDC1 amount per cell number vs DMSO (fraction of DMSO); HeLa model of a glycosaminoglycan (GAG) storage disease; KI is knock-in and KO knock-out; SDC1 is syndecan 1; higher = more SDC1 (GAG core protein)
# Conditions: 50 µM; 24 h
# 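Also: HA-SDC1 level read out by In-Cell Western staining with an anti-HA antibody against the N-terminal tag, screening FDA-approved library drugs.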
row,Compound,relative GAG core protein HA-SDC1 amount per cell number
1,O=C([O-])c1ccccc1.[Na+] [Sodium benzoate],inactive: 1.02
2,Cc1onc(-c2ccccc2Cl)c1C(=O)N[C@@H]1C(=O)N2[C@@H]1SC(C)(C)[C@@H]2C(=O)O [Cloxacillin Sodium],inactive: 0.965
3,Cc1cnc(NC(=O)C2=C(O)c3ccccc3S(=O)(=O)N2C)s1 [Meloxicam (Mobic)],inactive: 1.31
4,O=c1[nH]c(=O)n([C@H]2C[C@H](O)[C@@H](CO)O2)cc1F [Floxuridine],inactive: 0.96
5,Cn1c(=O)c2c(ncn2CC(O)CO)n(C)c1=O (stereo unspecified) [Dyphylline],inactive: 0.896
6,CC[C@H]1OC(=O)[C@H](C)[C@@H](O[C@H]2C[C@@](C)(OC)[C@@H](O)[C@H](C)O2)[C@H](C)[C@@H](O[C@@H]2O[C@H](C)C[C@H](N(C)C)[C@H]2O)[C@](C)(O)C[C@@H](C)/C(=N\OCOCCOC)[C@H](C)[C@@H](O)[C@]1(C)O [Roxithromycin],inactive: 0.857
7,CCCCC(C)(O)C/C=C/[C@H]1[C@H](O)CC(=O)[C@@H]1CCCCCCC(=O)OC (mixture of isomers) [Misoprostol],inactive: 0.753
8,CC(C)OC(=O)C(C(=O)OC(C)C)=C1SC=CS1 [Malotilate],inactive: 0.655
9,O=C1NCC2(CCN(CCc3ccccc3)CC2)O1 [Fenspiride HCl],inactive: 1.11
10,COc1nc2ccc(Br)cc2cc1[C@@H](c1ccccc1)[C@@](O)(CCN(C)C)c1cccc2ccccc12 [Bedaquiline fumarate],active: 0.378
11,CC1Cc2ccccc2N1NC(=O)c1ccc(Cl)c(S(N)(=O)=O)c1 (stereo unspecified) [Indapamide],inactive: 0.82
12,NCCC(O)(P(=O)(O)O)P(=O)(O)O [Pamidronate Disodium],inactive: 0.888
13,O=C(O)C(=O)O.[NH-][C@@H]1CCCC[C@H]1[NH-].[Pt+2] [Oxaliplatin],active: 0.339
14,CCN1CCC[C@H]1CNC(=O)c1cc(S(N)(=O)=O)ccc1OC [Levosulpiride],inactive: 1.33
15,Oc1cccc(O)c1O [Pyrogallol],inactive: 0.957
16,NC(=O)N/N=C/c1ccc([N+](=O)[O-])o1 [Nitrofurazone],active: 0.285

row,Compound,relative GAG core protein HA-SDC1 amount per cell number
1,CC[C@H]1OC(=O)[C@H](C)[C@@H](O[C@H]2C[C@@](C)(OC)[C@@H](O)[C@H](C)O2)[C@H](C)[C@@H](O[C@@H]2O[C@H](C)C[C@H](N(C)C)[C@H]2O)[C@](C)(O)C[C@@H](C)C(=O)[C@H](C)[C@@H](O)[C@]1(C)O [Erythromycin],inactive: 0.677
2,OCCOCCN1CCN(C2=Nc3ccccc3Sc3ccccc32)CC1 [Quetiapine Fumarate],active: 0.231
3,CCCCS(=O)(=O)N[C@@H](Cc1ccc(OCCCCC2CCNCC2)cc1)C(=O)O [Tirofiban hydrochloride monohydrate],inactive: 1.26
4,CC(C)=CCC/C(C)=C/CO [Geraniol],inactive: 0.968
5,Cc1ccsc1C(=CCCN1CCC[C@@H](C(=O)O)C1)c1sccc1C [Tiagabine],inactive: 0.928
6,COc1ccc2cc3[n+](cc2c1OC)CCc1cc2c(cc1-3)OCO2 [Berberine Sulfate],active: 0.361
7,COCCOC(=O)C1=C(C)NC(C)=C(C(=O)OC/C=C/c2ccccc2)C1c1cccc([N+](=O)[O-])c1 (stereo unspecified) [Cilnidipine],inactive: 0.558
8,O=C(O)/C=C/c1ccc(O)c(O)c1 [Caffeic acid],inactive: 1.09
9,COc1ccc2cc([C@H](C)C(=O)O)ccc2c1 [Naproxen Sodium],inactive: 1.24
10,O=c1cc[nH]c(=O)[nH]1 [Uracil],inactive: 0.868
11,CN1CCN2c3ccccc3Cc3ccccc3C2C1 (stereo unspecified) [Mianserin HCl],active: 0.491
12,O=C(N[C@H](CO)[C@H](O)c1ccc([N+](=O)[O-])cc1)C(Cl)Cl [Chloramphenicol],inactive: 1.36
13,COc1ccc2c(c1OC)C(=O)O[C@@H]2[C@H]1c2c(cc3c(c2OC)OCO3)CCN1C [Noscapine HCl],active: 0.321
14,Cc1ncc(CO)c(CO)c1O [Pyridoxine],inactive: 0.745
15,O=C(O)C1=CO[C@@H](O[C@@H]2O[C@H](CO)[C@@H](O)[C@H](O)[C@H]2O)[C@@H]2C(CO)=CC[C@H]12 [Geniposidic acid],inactive: 0.868
